# The campaign covered roughly 52,000 compounds. About 4,300 (8.3%) were called active. Cut-off read from the data, not from the text of the source: active = survival mostly below about 52% (no sharp cut-off); inactive = mostly above about 56%. The list shows a part of the results.
# Test system: DeltatarO mutant
# Assay: S. aureus survival, RN4220 and DeltatarO strains – OD600, teichoic acid synthesis inhibitors, primary screen (AID 463173)
# Settings: S. aureus RN4220 wild type/DeltatarO growth, OD600, 18 h, active compounds read low, screened at 18.75 µg/mL (by protocol)
row,SMILES,survival
1,CC(Sc1cn(CCNC(=O)c2ccccc2F)c2ccccc12)c1ccccc1 (stereo not drawn),active: 42%
2,Cc1ccc(NC(=O)c2c(C)oc3nc(C)nc(N4CCCC4)c23)c(C)c1,inactive: 70%
3,CCN(CCCNC(=O)CSc1cc(=O)n(CC)c2ccccc12)c1cccc(C)c1,active: 38%
4,Cc1c(Cl)cccc1NC(=O)Nc1nnc(N(C)Cc2ccccc2)s1,inactive: 71%
5,Cc1c(NC(=O)C(C)(C)Oc2ccc(Cl)cc2)cccc1-c1nc2ncccc2o1,active: 19%
6,CC1=C(C(=O)NCc2ccccc2C)C2(CCCCC2)OC1=O,inactive: 74%
7,CC(=O)c1ccc(NC(=O)Cn2cc(S(=O)(=O)Cc3ccccc3Cl)c3ccccc32)cc1,inactive: 74%
8,c1ccc(C(c2ccccc2)N2CCN(Cc3nnnn3Cc3ccc4c(c3)OCO4)CC2)cc1,inactive: 73%
9,Cc1cc(N2CCCC2)c2ccccc2n1,inactive: 96%
10,COc1ccc(Br)cc1C(=O)Nc1ccc(-c2nc3cc(Cl)ccc3o2)cc1,active: 43%
11,Cc1cc(C)c(C(N)=O)c(=S)[nH]1,inactive: 99%
12,O=C(CCS(=O)(=O)c1cc(Br)cc2c1N(C(=O)C1CC1)CC2)NCc1ccccc1Cl,inactive: 100%
13,COc1ccc2c(c1)c(=O)c(S(=O)(=O)c1ccc(C)cc1)cn2Cc1ccccc1C,inactive: 60%
14,CCC(C(=O)Nc1cc(F)ccc1F)n1nc(-c2cc(C)ccc2C)ccc1=O (stereo not drawn),active: 38%
15,CCOC(=O)N1CCc2c(sc3c2c(=O)n(Cc2ccccc2)c(=O)n3CC(=O)Nc2ccc(C)c(C)c2)C1,inactive: 71%
16,Cc1ccc(NC(=O)CCC(=O)N2CCSc3ccccc32)cc1Cl,inactive: 63%
17,COC(=O)C(C)n1nnc2sc(-c3ccccc3)cc2c1=O (stereo not drawn),inactive: 80%
18,C(#Cc1ccccc1)CN1CCCCC1,inactive: 107%
19,CCOc1ccc(NC(=O)CN2C(=O)COc3ccc(S(=O)(=O)NC4CCCC4)cc32)cc1,inactive: 73%
20,O=C(Nc1ccc(F)cc1F)c1ccc2c(O)c(S(=O)(=O)c3ccc(Cl)cc3)c(=O)[nH]c2c1,inactive: 74%

row,SMILES,survival
1,O=C(/C=N/O)NCCN1CCCCC1,inactive: 98%
2,CCc1ccc(C2c3c(oc4ccc(F)cc4c3=O)C(=O)N2c2nc(C)c(C(=O)OC)s2)cc1 (stereo not drawn),inactive: 77%
3,CCN(CC)c1nc(C(F)(F)F)nc2c1nnn2Cc1ccccc1,inactive: 83%
4,O=C(N/N=C/c1ccncc1)c1ccccc1,inactive: 79%
5,COc1ccc(N(CC(=O)Nc2cc(C)ccc2C)S(=O)(=O)c2ccc(OC)c(OC)c2)cc1,inactive: 157%
6,CC(C)=NNC(=O)CNc1ccccc1Cl,inactive: 79%
7,COc1ccccc1OCC(=O)NCc1nc(-c2ccc(Cl)cc2)no1,inactive: 52%
8,CCOc1ccc(C(=O)Nc2ccc(S(=O)(=O)Nc3nc(C)cc(C)n3)cc2)cc1OC,inactive: 84%
9,Cc1ccccc1Cc1c(C)nc2nc(SCC(=O)NCCc3ccc(Cl)cc3)nn2c1C,inactive: 67%
10,CC1=C(c2ccc(C)c(C)c2)S(=O)(=O)N(Cc2ccc(C(=O)NC(C)c3ccccc3)cc2)C1=O (stereo not drawn),inactive: 83%
11,O=C(COCc1cc(-c2ccc3c(c2)OCO3)on1)NCc1ccccc1Cl,inactive: 70%
12,Cc1nc2scc(C)n2c(=O)c1S(=O)(=O)N1CCN(c2cccc(C(F)(F)F)c2)CC1,inactive: 64%
13,CN(C)c1ccc(NC(=O)Cn2cc(S(=O)(=O)Cc3cccc(Cl)c3)c3ccccc32)cc1,inactive: 67%
14,Cc1cccc(N(C)c2ccc3cc(S(=O)(=O)N4CCCC4)ccc3n2)c1,inactive: 96%
15,Cc1ccc2c(c1)c(N1CCCC1=O)c(C(=O)Nc1ccc(F)cc1F)n2C,inactive: 71%
16,CCC(=O)N1CCc2cc(S(=O)(=O)NC(Cc3ccccc3)C(=O)Nc3cccc(OC)c3)ccc21 (stereo not drawn),inactive: 84%
17,Cc1ccc(C)c(NC(=O)CSC2=Nc3ccccc3N=C(c3ccc(F)cc3)C2)c1,inactive: 88%
18,CCOC(=O)c1cc(S(=O)(=O)N2CCN(c3ccc(C)cc3C)CC2)[nH]n1,inactive: 82%
19,Cc1ccc(-c2nnc3c4ccccc4c(C)nn23)cc1NC(=O)c1ccccc1Cl,inactive: 93%
20,Cc1ccc(S(=O)(=O)c2nnn3c2nc(N2CCCC2)c2sccc23)cc1,inactive: 113%

row,SMILES,survival
1,COc1cccc(N2CCN(c3ncnc4onc(-c5ccc(F)cc5)c34)CC2)c1,inactive: 83%
2,O=C(C1CCCN(S(=O)(=O)c2cccc3nsnc23)C1)N1CCN(c2ccccc2Cl)CC1 (stereo not drawn),inactive: 107%
3,O=C(CCCCCn1c(=O)[nH]c2ccccc2c1=O)NCc1ccccc1,inactive: 75%
4,CC1CCN(C(=O)c2ccc(N3C(=O)c4ccccc4C3=O)cc2)CC1,inactive: 77%
5,O=C(COC(=O)C1CC(=O)N(Cc2ccco2)C1)c1ccc(OC(=O)c2ccco2)cc1 (stereo not drawn),inactive: 97%
6,CS(=O)(=O)N1CCc2cc(C(=O)N3CCN(c4ccccc4)CC3)ccc21,inactive: 47%
7,CC1CCC(N2CC(=O)N(C3CCCCC3)C(c3ccc(F)cc3)C2=O)CC1 (stereo not drawn),inactive: 82%
8,Cc1ccc2c(c1)N(C(=O)Nc1cccc(C)c1C)CCO2,inactive: 80%
9,O=S1(=O)c2ccccc2-c2cc(Br)ccc21,inactive: 79%
10,CC1Cc2cc(S(=O)(=O)NCCc3ccccc3)ccc2N1C(=O)C1CCC1 (stereo not drawn),inactive: 85%
11,CCCc1nnc(NC(=O)c2cc(=O)c3cc(Cl)ccc3o2)s1,active: 43%
12,Clc1ccccc1CN1CCN(Cc2ccco2)CC1,inactive: 86%
13,CC(=O)c1cc(-c2ccccc2)n(CCC(=O)Nc2ccc(C)cc2C)c1C,inactive: 82%
14,COc1ccc(N2CC(NC(=O)c3cc4ccccc4o3)CC2=O)cc1 (stereo not drawn),inactive: 102%
15,C=CCn1c(CNC(=O)c2ccccc2)n[nH]c1=S,inactive: 78%
16,COc1cccc(-c2nc(SCC(=O)NC3CCCC3)c(-c3ccccc3)[nH]2)c1,inactive: 55%
17,COc1ccc(NC(=O)Cn2cnc3ccc(S(=O)(=O)N4CCC(C)CC4)cc3c2=O)cc1OC,inactive: 59%
18,CCOc1ccc(NC(=O)/C=C\C(=O)N(c2ccc(C(C)C)cc2)C(C(=O)NCc2ccco2)c2ccc(F)cc2)cc1 (stereo not drawn),inactive: 83%

# Source: PubChem BioAssay AID463173 (ICCB-Longwood Screening Facility, Harvard Medical School, 2010)
